The record followed here is paper PMC12136788.

The list shows a part of the results.

The chains are these.
B1: chr17:57763070:57763071:+_ENSG00000141367_ENST00000269122|hu_mus|FALSE|FALSE (ssRNA)
RNA: GGGAGUUCUACAGUCCGACGAUCGGCGAAAUCCAUGAUAUUAUGUCUCCAUGCGGUUUCCAGGACGACAUCUGGCCUUAAGAGAUCAUAACAGGUAAAGAGACAAGCUCCAAAGCAUUCUCUUUUUUCUUCCUGCAAAAACCACAACAGAGGAUUGAGCAUCA
B2: chr2:170668292:170668293:+_ENSG00000138385_ENST00000260956|hu_mus|FALSE|FALSE (ssRNA)
RNA: GGGAGUUCUACAGUCCGACGAUCACCUAAUUCGCUUUUCUUUUUAAAAGCUUCUGAAGACAAAAAGCAGCUUAAAAUCUAACUAAGGAAUAAAAACACUGCUUACUAAAUAAACUACUUGUCUCUAGCACCAUUUUCUCUUUUCAACAGAGGAUUGAGCAUCA
B3: chr11:87794976:87794977:-_ENSMUSG00000020483_ENSMUST00000020775|perfect_dup|motif|central (ssRNA)
RNA: GGGAGUUCUACAGUCCGACGAUCGCAACGCCGCCUGCUUGCCAUCGCUGCCGCCGCCACUGACACCUUCACCAUGGCCACCGGGCCUGACUUGAAGAGGAGGAUUGCAACUUGACCCAAGUAAAAAUAGAUGAAGUGCUUUGUCAACAGAGGAUUGAGCAUCA
B4: chr17:3197573:3197574:+_ENSMUSG00000046201_ENSMUST00000076734|mus_hu|motif|central (ssRNA)
RNA: GGGAGUUCUACAGUCCGACGAUCCCUCACAAGAUUCUCUCUUAUAUCUACAGGAGGUCUUCCAAAAUGAUCCCUACCAUCGGGUGGAGGCCGUCCAGGACCUUCUCUUGGAUCUAUAGGCCGCCCAACCACAUCUCUAACAUCCAACAGAGGAUUGAGCAUCA
B5: chr17:12908325:12908326:-_ENSG00000006744_ENST00000338034|hu_mus|FALSE|FALSE (ssRNA)
RNA: GGGAGUUCUACAGUCCGACGAUCCACCAGCGCCACAGGUGCAUCAGCCUCUGCCUGGUACCUUUUAAAGGUGUCGUUCUCACAGAUGGGCAGGAUGAAUCCUUCAUCAGGACACUCUACCACAAUGAAUACAAGACCAGGAUCCAACAGAGGAUUGAGCAUCA
B6: chr8:121872745:121872746:+_ENSMUSG00000031839_ENSMUST00000034300|mus_hu|motif|central (ssRNA)
RNA: GGGAGUUCUACAGUCCGACGAUCCUUUGUGGUGACAAUCAUAUGGAUCACCUUCCAGGUCAUCAGUAUUGGCCUCGGGGUUUAGCACUCCUGGCACUGCAUUUUUGAGUGGCCAGAGAUAAAGGUAUUAUCCCUGUCUUCUAUCAACAGAGGAUUGAGCAUCA
B7: chr2:131005039:131005040:-_ENSMUSG00000068267_ENSMUST00000089510|mus_mus|FALSE|FALSE (ssRNA)
RNA: GGGAGUUCUACAGUCCGACGAUCGUACCACAGGCUGGUCUCGGUGGCGCUGAACACGUCCUGCGAGGCGUAGCCCUCAGCUACCGACGGCGGCUGCUCCUCCCUCGUGUGCCAGCCGGGUGUGCUCCCACCGCUGCCCUCGGACAACAGAGGAUUGAGCAUCA
B8: 49662626_49662861_1819_CDS_ENSMUSG00000028309_ENSMUST00000029989|mouse|control|control (ssRNA)
RNA: GGGAGUUCUACAGUCCGACGAUCGAGGGCACUGCCACUGCGCAGACGUGUCUUGUUCAGGUCAGACUGCGCCUCUCUCAGCUUCCGUUUAUACCUUAGGACUUCACCCUUCAGCUGGUGGUUAUGAUUCUGGAGGCUGCUAAUCAACAGAGGAUUGAGCAUCA
B9: chr4:160235802:160235803:+_ENSG00000109756_ENST00000264431|hu_hu|FALSE|FALSE (ssRNA)
RNA: GGGAGUUCUACAGUCCGACGAUCGCUCAUCAGAGGAUCUGAUGCUCUCUCAAUGUCUUCUUCAUCGUCGUCGUCUUCGGAAUCCACUGCUGUUUCUGGCAACCCACUCAGGUCCAUAUCACCAGCCUCGCUUUCUGUGGCCUGCAACAGAGGAUUGAGCAUCA
B10: chr18:9122563:9122564:+_ENSG00000178127_ENST00000318388|hu_hu|FALSE|FALSE (ssRNA)
RNA: GGGAGUUCUACAGUCCGACGAUCGACCUGAAUGUGAUACUUUCCAACUGGCUUUCGAUUAUACAUUGUAUAAAAAGUUGCUACUUCAUAUACUCUCAUUGGAGGUACUUGUAAAACUUCUGCAACCUUGUUCAUAGCAGAGAUCAACAGAGGAUUGAGCAUCA
B11: chr3:158399885:158399886:+_ENSG00000168827_ENST00000264263|hu_mus|motif|central (ssRNA)
RNA: GGGAGUUCUACAGUCCGACGAUCCUCAUCAGAAAACUCCAACUUCGUGUAGUCCUCUGGGGGCAAGGGCUCCAGCACUCCGGUUACUUUUCCAAACUGGCCGGCACCACCCGACUGCUUUUUAUGUGUAAAAUCAAACGGCACCAACAGAGGAUUGAGCAUCA
B12: chr2:115890611:115890612:-_ENSMUSG00000027210_ENSMUST00000102538|mus_mus|FALSE|FALSE (ssRNA)
RNA: GGGAGUUCUACAGUCCGACGAUCCAAUAAACUCCUGGAUGUGUCGUAUAUUUAAUAUCCCAGUCCGGAUAAGAAAGUGAGCUAGGUUGAAGAGUCCUUUUUUUCCAAACCAAGGAGACUUCUCCCAAUUUUCCAAUGUUAUUUCAACAGAGGAUUGAGCAUCA
B13: chr2:23028566:23028567:+_ENSMUSG00000026775_ENSMUST00000028117|mus_hu|FALSE|FALSE (ssRNA)
RNA: GGGAGUUCUACAGUCCGACGAUCGGUUUUUUGUGUGAGUGCUUGAGCUUUCAGAAAACCUUCCGCAAAACCAGUUUUAAAUGCAUCUUGGUGAGCUUCAGGUAUAUUUUUGGUUUUCAUGAGUUUGUCCAAACUCUCAACAUCCAACAGAGGAUUGAGCAUCA
B14: chr6:38489255:38489256:+_ENSMUSG00000019689_ENSMUST00000019833|mus_hu|FALSE|FALSE (ssRNA)
RNA: GGGAGUUCUACAGUCCGACGAUCACGAGUUGUAUCUCCCUUGCCAUGAAAUUCCUGAUGUAGGGCCACAUGUUUCCGGAUGCUACGCAGGAGGCAGAGAUAGGUGGCAGCUUGGAAAUGAAGCUCAUGUUGGGCUCUGCACAACAACAGAGGAUUGAGCAUCA
B15: chr12:39756943:39756944:-_ENSG00000139116_ENST00000544797|hu_mus|hu_hu_hu_mus_False|28_98 (ssRNA)
RNA: GGGAGUUCUACAGUCCGACGAUCGGUUUGGCUGUUACCCCCGAGGGAAUCCUGCAAGAGUCUUGUCAGCUUAGAGUCUCUGUAAGGGACAUGGGUGGCUCUCUUGCUCUUGUCUCCCAAGGCGCUGAUUACAUUCCCAAGAGCCAACAGAGGAUUGAGCAUCA
B16: 107591758_107592564_3500_CDS_ENSG00000091136_ENST00000393561|human|control|control (ssRNA)
RNA: GGGAGUUCUACAGUCCGACGAUCCCCCGUGAACUCAUUGCAAGAUGGCCCGAAGGAAUGAGCAGCAUUGCAGUUGCAUGGGUCACAGCCAGUGCCACUGGCCAGCUGCCAGGUAUUGGGCGCACAGCGGUCACAGUUCUGCCCCAACAGAGGAUUGAGCAUCA
B17: chr10:8116392:8116393:+_ENSG00000107485_ENST00000346208|hu_mus|FALSE|FALSE (ssRNA)
RNA: GGGAGUUCUACAGUCCGACGAUCCAUCAAACAACUGAAGGGAAACAAAACUGACAGUGUGCCCAUUUGGACAUCAGACUUAGUGGUUUCUUCUGUAUCUCCAUACUUUAAUCCCCCUAUAUUCCUUAAAACUCUUGGCGUCCUCAACAGAGGAUUGAGCAUCA
B18: chr5:134670393:134670394:-_ENSG00000113648_ENST00000304332|hu_mus|FALSE|FALSE (ssRNA)
RNA: GGGAGUUCUACAGUCCGACGAUCAGGGGAGGGACCGCUGCUCCGCUGCUCUGUGUUAAUCAGGACUUCAUUAGAGUGAAACUAUAAAAUCCUCUAGGUUGACUAAGUCAGACACGGUCUGGAAAGCAGUGCUUAACAAGGACGCAACAGAGGAUUGAGCAUCA
B19: 5117298_5117418_513_CDS_ENSMUSG00000024862_ENSMUST00000116563|mouse|control|control (ssRNA)
RNA: GGGAGUUCUACAGUCCGACGAUCGGGAGCUAGCAGGGCACGAUGCUCCCCUCUCAGGGUCUCUAAACCCUGGAUCACCGCCUUGGUGCCCAGCACUAUCUCGUCCUGACUCAGCUUCUCCUCUCGAGGAAGCACCAUCGUGGCCAACAGAGGAUUGAGCAUCA
B20: chr10:102306293:102306294:+_ENSG00000166135_ENST00000299163|hu_hu|motif|central (ssRNA)
RNA: GGGAGUUCUACAGUCCGACGAUCAGCCCCCUUAUACCAGAAGUUCACAGUGAUGGUAAUCCCCCCAUUUAGUAAUGACUCGGUGUGAUGCCACCAGUACAUUGGGAUGUAAAGAACAUCACCAGGGCCAACCACUGUUUCGUACAACAGAGGAUUGAGCAUCA
B21: 27594204_27595603_414_CDS_ENSG00000115234_ENST00000233575|human|control|control (ssRNA)
RNA: GGGAGUUCUACAGUCCGACGAUCUUGCAUGUACUUCUCUAACUGCUCUCUCCUCUGUUCUACCUCAGCAGGAGUCAGAGAGAAAAGCUUCUUUGGGGGGAAUGCAGGAAGCACAUUGGCCCCAUACUCCUUCCGAAGCUGCUCCAACAGAGGAUUGAGCAUCA
B22: 91351981_91352101_656_3pUTR_ENSMUSG00000055013_ENSMUST00000027521|mouse|control|control (ssRNA)
RNA: GGGAGUUCUACAGUCCGACGAUCGCUCGUAGAUGGAGUAGAUGUUGGGGUGGACCGACUCGAAGCGCUGGAUCUCGGCCCGGAUGGCAGCCGAGUUGGCCAGCUGCUGCUGGUAGUUCAUGGUGCAGGCGCGGCGCCCAAAGCCAACAGAGGAUUGAGCAUCA

The assay addresses T1, UNK ZnF1-3 (human, UniProt Q9C0B0 31-174).
T1 sequence: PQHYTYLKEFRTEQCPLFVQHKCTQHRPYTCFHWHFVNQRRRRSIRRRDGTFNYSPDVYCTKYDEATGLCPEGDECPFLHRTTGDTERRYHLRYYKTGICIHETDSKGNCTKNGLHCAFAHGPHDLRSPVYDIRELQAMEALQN
The assay can be described thus: nsRBNS (natural sequence RNA bind-n-seq); RBNS binding buffer (assumed for nsRBNS): 25 mM Tris pH 7.5, 150 mM KCl, 3 mM MgCl2, 0.01% Triton X-100, 500 ug/ml BSA, 20 U/ml SUPERase-In, 4 C; UNK is unkempt and MSI1 is Musashi-1; names of the RNAs are library labels; protein concentration not given here; high values mean tight binding.
As for B1, the binding signal came out at 0.535 enrichment R.

In the case of B2, the binding signal stood at 1.21 enrichment R.

In turn, B3 yielded a binding signal of 1.82 enrichment R.

The molecule B4 had a binding signal of 0.852 enrichment R.

B5 came in with a binding signal of 0.935 enrichment R.

The molecule B6 yielded a binding signal of 0.465 enrichment R.

In turn, B7 yielded a binding signal of 0.748 enrichment R.

Take B8: the binding signal was 0.652 enrichment R.

B9 yielded a binding signal of 0.843 enrichment R.

B10: the binding signal was found to be 0.703 enrichment R.

In turn, B11 came in with a binding signal of 0.892 enrichment R.

Turning to B12, the binding signal turned out to be 0.661 enrichment R.

B13 yielded a binding signal of 1.53 enrichment R.

In turn, B14 displayed a binding signal of 1.02 enrichment R.

Molecule B15 came in with a binding signal of 0.765 enrichment R.

The molecule B16 came in with a binding signal of 1.39 enrichment R.

As for B17, the binding signal came out at 1.05 enrichment R.

On to B18, for which the binding signal amounted to 1.36 enrichment R.

B19: the binding signal was 0.6 enrichment R.

For B20, the binding signal came out at 1.37 enrichment R.

B21 gave a binding signal of 0.618 enrichment R.

With B22, the binding signal was 0.833 enrichment R.
